Molecules are shown by their SMILES. Out of some 110,000 compounds screened, about 230 (0.21%) showed an effect of 50% or more. Some of the results follow.
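Also: 30 min substrate incubation versus DMSO and 10 µM JCP410 controls.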

DPAP1, sequence (Q8IIJ9 whole entry, looked up): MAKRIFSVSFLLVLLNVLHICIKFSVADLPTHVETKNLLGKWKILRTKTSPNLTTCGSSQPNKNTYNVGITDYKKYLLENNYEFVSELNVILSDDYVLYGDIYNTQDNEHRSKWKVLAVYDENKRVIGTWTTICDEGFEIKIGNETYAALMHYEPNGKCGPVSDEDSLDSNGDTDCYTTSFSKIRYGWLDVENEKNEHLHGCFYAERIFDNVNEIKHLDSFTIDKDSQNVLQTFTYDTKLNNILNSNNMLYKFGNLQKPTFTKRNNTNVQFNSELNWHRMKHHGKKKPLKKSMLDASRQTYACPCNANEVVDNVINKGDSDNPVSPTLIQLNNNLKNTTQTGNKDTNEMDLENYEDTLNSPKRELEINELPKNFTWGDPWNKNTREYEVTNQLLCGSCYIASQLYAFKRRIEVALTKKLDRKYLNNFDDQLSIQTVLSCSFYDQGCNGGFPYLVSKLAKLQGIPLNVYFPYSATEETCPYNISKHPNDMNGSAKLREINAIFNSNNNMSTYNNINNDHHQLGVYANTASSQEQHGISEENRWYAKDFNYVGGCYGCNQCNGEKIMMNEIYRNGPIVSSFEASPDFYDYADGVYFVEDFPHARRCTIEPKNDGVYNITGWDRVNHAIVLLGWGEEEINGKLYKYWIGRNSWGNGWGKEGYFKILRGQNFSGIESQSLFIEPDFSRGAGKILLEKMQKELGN

This experiment addresses DPAP1 (Plasmodium falciparum, UniProt Q8IIJ9). The experiment can be described thus: primary screen, percent inhibition; read by cleavage of a fluorogenic dipeptide substrate; higher = more effect of the substance. Details: species or system P. falciparum D10 trophozoite lysates; single well.
In the case of `CCCCOc1ccc(OCC(=O)Nc2nc3ccccc3[nH]2)cc1`, the “% Inhibition @ 10 uM” value is listed as -1.43%.

With `CCOC(=O)c1cc(-c2ccc(OC)c(S(=O)(=O)NCc3ccco3)c2)on1`, the “% Inhibition @ 10 uM” value is reported as -7.04%.

Regarding `Cc1ccc(S(=O)(=O)Nc2ccc(N3CCOCC3)cc2)cc1`, the “% Inhibition @ 10 uM” value is on record as -3.55%.

Take `CC(=O)c1cccc(NC(=O)CN(Cc2ccc(Cl)cc2)S(=O)(=O)c2ccc(Cl)cc2)c1`: the “% Inhibition @ 10 uM” value is recorded as 1.89%.

For the molecule `Cc1ccccc1C(=O)Nc1c(C(=O)NC(C)(C)C)oc2ccccc12`, the “% Inhibition @ 10 uM” value is -1.98%.

With `COc1ccc(-c2cc(C(F)F)n3ncc(C(=O)Nc4cc(OC)c(OC)cc4C(C)=O)c3n2)cc1`, the “% Inhibition @ 10 uM” value was 0.331%.

Regarding `CC1CCC2C(=O)N(c3ccccc3O)C(=O)C2C1` (centres unmarked), the “% Inhibition @ 10 uM” value was found to be 1.02%.

Regarding `CC(C)(C)c1ccc(/C=C/C(=O)NCCCn2ccnc2)cc1`, the “% Inhibition @ 10 uM” value was 0.565%.

On to `COc1ccc(C2CC(c3ccccc3)=Nc3ccccc3S2)cc1` (centres unmarked), for which the “% Inhibition @ 10 uM” value was -3.92%.

On to `CN(Cc1ccccc1)C(=O)Cn1ncn2cccc2c1=O`, for which the “% Inhibition @ 10 uM” value is reported as -9.31%.

Regarding `COc1cccc2c(O)c3c(nc12)OC(C)(C)C3`, the “% Inhibition @ 10 uM” value was -0.736%.

As for `CO/C(=C\c1ccc(OC)cc1)C(=O)c1ccccc1`, the “% Inhibition @ 10 uM” value was -2.88%.

For `Cc1ccc(C2=NS(=O)(=O)N(C)C(C(=O)N3CCC(C)CC3)=C2)cc1`, the “% Inhibition @ 10 uM” value was 6.98%.

With `CN1CCN(Cc2nnc(S)n2-c2ccc(Cl)cc2)CC1`, the “% Inhibition @ 10 uM” value is recorded as -2.03%.

Turning to `CC1(C)CC(=O)c2c(O)cc(=O)n(-c3ccc(F)cc3)c2C1`, the “% Inhibition @ 10 uM” value is -1.07%.

As to `Cc1c(SCCO)c(O)nc2cc3c(cc12)OCO3`, the “% Inhibition @ 10 uM” value is recorded as -2.73%.

In the case of `N#Cc1ccccc1S(N)(=O)=O`, the “% Inhibition @ 10 uM” value came out at 0.776%.

Consider `Cc1ccc(C)n1-c1nnc(N2CCC(C(=O)NCCc3ccc(Cl)cc3)CC2)s1`, for which the “% Inhibition @ 10 uM” value is recorded as -4.04%.

As for `O=C(Nc1ccccn1)C(=O)NC1CCCCC1`, the “% Inhibition @ 10 uM” value is given as -1.75%.

Take `Cc1ccc(C(C)C)c(OCC(=O)N(Cc2ccc(C)o2)C2CCS(=O)(=O)C2)c1` (centres unmarked): the “% Inhibition @ 10 uM” value amounted to 10.9%.

As to `COCCCNC(=O)c1sc2cc(Cl)ccc2c1Cl`, the “% Inhibition @ 10 uM” value was 8.97%.

Regarding `CCOc1ccc(N2C(=O)CC(NCCc3ccc(S(N)(=O)=O)cc3)C2=O)cc1` (centres unmarked), the “% Inhibition @ 10 uM” value was -2.22%.

With `COc1cccc(CNC(=O)CNC(=S)N(Cc2ccccc2)Cc2ccccc2F)c1`, the “% Inhibition @ 10 uM” value amounted to 2.79%.

Consider `Cc1cc(CS)cs1`, for which the “% Inhibition @ 10 uM” value was 2.83%.

As for `Cc1ccsc1/C=c1\sc2nc(-c3ccccc3)nn2c1=O`, the “% Inhibition @ 10 uM” value is recorded as -5.2%.

For `COc1ccc(OC)c(CCNC(=O)C2CCN(c3nnc(-n4cccc4)s3)CC2)c1`, the “% Inhibition @ 10 uM” value stood at 2.76%.

Regarding `Cc1ccc(CN2CCNC2=O)cc1`, the “% Inhibition @ 10 uM” value is given as -1.59%.

Turning to `CCCCCCn1c(=O)c(C(=O)Nc2nc(C)cs2)c(O)c2ccccc21`, the “% Inhibition @ 10 uM” value came to 2.85%.

For `OC(CN1CCCC1)Cn1c2ccc(Cl)cc2c2cc(Cl)ccc21` (centres unmarked), the “% Inhibition @ 10 uM” value is recorded as -2.27%.

For the origin of these results see article PMC6919601, “Identification of Plasmodium dipeptidyl aminopeptidase allosteric inhibitors by high throughput screening” (PLoS ONE, 2019).
